# Measured values from PubChem BioAssay.
# The inconclusive results got no clear call from the source; some entries with a clear call stand among them for comparison. The source made the active and inactive calls.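 The calls were made as follows: active = thallium flux slope beyond 3 SD from same-plate DMSO control mean in most replicates, usually higher, sometimes lower; inconclusive = repeat tests gave conflicting results; inactive = no significant difference from controls in most replicates.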
# Target: Solute carrier family 12 member 5 (Homo sapiens) (UniProt Q9H2X9)
# Chain of UniProt Q9H2X9 (Q9H2X9 whole entry, looked up): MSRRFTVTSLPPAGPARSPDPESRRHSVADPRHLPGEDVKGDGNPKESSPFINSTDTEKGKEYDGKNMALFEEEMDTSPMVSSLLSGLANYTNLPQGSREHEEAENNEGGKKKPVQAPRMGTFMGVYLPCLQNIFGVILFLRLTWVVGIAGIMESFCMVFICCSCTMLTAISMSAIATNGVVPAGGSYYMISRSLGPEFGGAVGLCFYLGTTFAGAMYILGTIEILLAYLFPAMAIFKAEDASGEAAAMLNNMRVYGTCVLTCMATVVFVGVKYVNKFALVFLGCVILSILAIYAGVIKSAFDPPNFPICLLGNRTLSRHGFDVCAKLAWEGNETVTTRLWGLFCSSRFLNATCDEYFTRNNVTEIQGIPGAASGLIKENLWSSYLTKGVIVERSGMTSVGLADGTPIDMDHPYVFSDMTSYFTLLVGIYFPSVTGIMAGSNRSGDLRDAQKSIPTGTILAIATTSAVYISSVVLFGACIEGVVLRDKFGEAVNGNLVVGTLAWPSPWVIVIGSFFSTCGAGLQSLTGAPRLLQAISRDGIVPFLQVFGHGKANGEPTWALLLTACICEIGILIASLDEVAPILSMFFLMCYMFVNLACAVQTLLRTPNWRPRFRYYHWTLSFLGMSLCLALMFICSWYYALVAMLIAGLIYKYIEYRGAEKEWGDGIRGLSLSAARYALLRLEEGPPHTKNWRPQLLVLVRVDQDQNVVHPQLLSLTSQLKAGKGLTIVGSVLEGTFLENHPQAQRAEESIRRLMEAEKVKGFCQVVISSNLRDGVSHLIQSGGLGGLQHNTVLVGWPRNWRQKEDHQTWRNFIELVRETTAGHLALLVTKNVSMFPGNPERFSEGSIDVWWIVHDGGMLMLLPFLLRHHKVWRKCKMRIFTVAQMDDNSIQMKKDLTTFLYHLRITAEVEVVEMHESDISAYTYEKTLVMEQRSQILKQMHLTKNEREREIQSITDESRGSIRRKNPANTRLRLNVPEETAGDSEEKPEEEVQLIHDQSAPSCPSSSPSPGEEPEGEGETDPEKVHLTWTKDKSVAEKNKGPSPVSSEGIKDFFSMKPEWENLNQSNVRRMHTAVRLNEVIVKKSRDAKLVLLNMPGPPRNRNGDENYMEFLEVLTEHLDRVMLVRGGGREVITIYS
# Test: modulation of KCC2 thallium flux in HEK cells – cell-based, ouabain, retest, confirmation (AID 1717);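 also: slope of initial-normalized fluorescence between seconds 10 and 20 after thallium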
# Conditions: HEK293-KCC2, thallium flux FluoZin2 fluorescence, at 10 µM, bidirectional: low = inhibitor, high = activator
row,SMILES,"raw Tl+ flux slope (below DMSO = inhibition, above = activation)"
1,COc1ccccc1NC(=S)N=Nc1c(O)[nH]c2ccc(Br)cc12,inconclusive: 0.0235
2,O=C(CSc1ccc(-c2ccccc2)nn1)N1CCCc2ccccc21,inconclusive: 0.0155
3,O=C(/C=C/c1ccccc1)CC(=O)c1ccccc1O,inconclusive: 0.0249
4,Cc1ccc(-c2ccc(S(=O)(=O)NCC3CCCO3)cc2)cc1 (centres undefined),inconclusive: 0.0176
5,O=C(NC(=S)N1CCN(C/C=C/c2ccccc2)CC1)c1c(F)cccc1F,inconclusive: 0.031
6,Cc1ccc(/C=C2\S/C(=N/S(=O)(=O)c3cccs3)NC2=O)cc1,inconclusive: 0.0214
7,Cc1ccc(OCC(=O)NNC(=O)C(=O)N2CCCC2)c(C)c1,inconclusive: 0.0244
8,Cc1ccc(OCC(=O)NC(=S)Nc2ccc3c4c(cccc24)CC3)cc1,inconclusive: 0.0309
9,CCc1nnc(NC(=O)CSc2nnc(Cc3ccccc3)o2)s1,inconclusive: 0.0152
10,CC1CCN(C(=O)c2ccc(SCc3ccccc3F)c([N+](=O)[O-])c2)CC1,inconclusive: 0.0184
11,COC(=O)[C@@H](NC(=O)O[C@@H]1C(=O)c2ccc(OC)cc2O[C@H]1c1cccc(C(F)(F)F)c1)C(C)C,inconclusive: 0.0236
12,Cn1nnc(NCc2cc(Br)ccc2OCc2cccs2)n1,inconclusive: 0.0172
13,Oc1ccccc1/C=N/Nc1nc2ccccc2o1,inconclusive: 0.0228
14,CC1=NN(c2nc3ccccc3s2)C(O)(C(F)(F)F)C1 (centres undefined),inconclusive: 0.0228
15,C/C(=N\NC(=O)c1cccnc1)c1cc2ccccc2o1,inconclusive: 0.0303
16,CN(C)CCCN1C(=O)c2oc3ccc(Cl)cc3c(=O)c2C1c1cccnc1 (centres undefined),inconclusive: 0.027
17,COc1ccc(NC(=O)CSc2nnc(CNc3ccc(F)cc3)o2)c(OC)c1,inconclusive: 0.0182
18,Cc1c(Cc2ccccc2)c(=O)oc2cc(OCc3ccc(C(=O)O)cc3)ccc12,inconclusive: 0.0167
19,O=C(NC(=S)NCc1ccc2c(c1)OCO2)c1ccccc1,inconclusive: 0.0235
20,COc1cc(-c2c(C#N)c(N)nc(SCc3ccncc3)c2C#N)cc(OC)c1OC,inconclusive: 0.0237
21,CC1=NN(c2nc(-c3ccccc3)cs2)C(=O)C1N=Nc1ccccc1 (centres undefined),inconclusive: 0.037
22,O=C(c1cc(-c2ccc(O)cc2)on1)N1CCCc2ccccc21,active: 0.0175
23,O=C(NC(=S)Nc1ccc(-c2nc3ncccc3o2)cc1)c1ccccc1F,inconclusive: 0.0256
24,CCCn1nnc(NCc2ccc(OCc3cccs3)c(OC)c2)n1,inconclusive: 0.0157
